# Experimental data as given in PubChem BioAssay AID485344 (National Center for Advancing Translational Sciences (NCATS), 2010).
# Among all 340,000 compounds or so, about 6,900 (2%) were called active. Rule as the data show it: active = inhibition above about 30%; inactive = below that, where a call was filed. The entries are a selection whose mix differs from that of the whole data set. The source gives no active or inactive call for entries shown without one.
# Biological target: D(2) dopamine receptor (Homo sapiens) (UniProt P14416)
# Test: HTS Assay for Allosteric Antagonists of the Human D2 Dopamine Receptor: Primary Screen for Antagonists; also: 0% is about no effect
# Details: HEK293 TREx D2 cells, calcium flux, dopamine EC80; at 10 µM; stronger effect = higher value
# In short: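 Calcium mobilization kinetics were recorded at 1 s intervals in tetracycline-induced HEK293 T-REx D2 cells, first for 180 s after compound addition and then 180 s after EC80 dopamine.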
# Sequence of UniProt P14416 (P14416 whole entry, looked up): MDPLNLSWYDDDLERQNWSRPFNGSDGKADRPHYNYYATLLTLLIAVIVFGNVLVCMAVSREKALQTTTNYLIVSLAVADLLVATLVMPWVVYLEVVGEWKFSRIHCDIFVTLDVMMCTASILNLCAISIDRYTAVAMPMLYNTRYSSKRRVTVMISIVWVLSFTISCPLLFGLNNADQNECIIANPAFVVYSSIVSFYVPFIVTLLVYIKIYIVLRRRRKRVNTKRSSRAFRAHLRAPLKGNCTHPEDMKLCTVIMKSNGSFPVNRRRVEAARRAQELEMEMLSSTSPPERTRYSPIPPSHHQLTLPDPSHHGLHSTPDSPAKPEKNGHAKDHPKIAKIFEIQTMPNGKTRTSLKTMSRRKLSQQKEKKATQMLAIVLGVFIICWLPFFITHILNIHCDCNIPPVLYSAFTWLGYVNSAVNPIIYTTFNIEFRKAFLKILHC
row,Compound,inhibition
1,Cc1ccc2c(=O)c(C(=O)c3cccc(Cl)c3)cn(CC(=O)NCc3ccccc3)c2n1,-25.8%
2,COc1cccc(OCCn2c(-c3ccc(Cl)cc3)nc3ccccc3c2=O)c1,18.1%
3,CCC(CC)C(=O)Nc1cccc(-c2cn3cccnc3n2)c1,-6.13%
4,Cc1c(Cl)cccc1-c1ccc(C(=O)Nc2ccc3oc(-c4cccnc4)nc3c2)o1,-9.98%
5,O=C(CCSCCc1ccccn1)Nc1ccccc1C(F)(F)F,-7.08%
6,CCc1ccccc1NC(=O)Cn1cc(C(=O)c2ccncc2)c(=O)c2cc(C)ccc21,-5.34%
7,COc1ccc(CCNC(=O)c2cc(-c3ccc(C)cc3)nc3n[nH]c(-c4ccc(F)cc4)c23)cc1OC,-2.2%
8,Cc1ccc(-n2ncc3c(NCCc4ccccc4)ncnc32)cc1Cl,-4.74%
9,O=C(COCc1cc(-c2ccc(F)cc2)on1)Nc1cc(Cl)cc(Cl)c1,-25.1%
10,O=C(N/N=C\c1cn[nH]c1-c1ccccc1)c1ccc([N+](=O)[O-])cc1,active: 57.8%
11,Cc1ccc(N2CC(C(=O)NCCS(=O)(=O)N3CCN(c4ccc(F)cc4)CC3)CC2=O)cc1 (centres undefined),-8.85%
12,O=C(CCSCc1cccc(F)c1)NCCc1ccccc1,-21.9%
13,CCN(CC)S(=O)(=O)c1ccc2c(c1)N(CC(=O)Nc1cccc(C(C)=O)c1)C(=O)CO2,2.47%
14,Cc1csc(SCC(=O)Nc2ccc(C)c(F)c2)n1,active: 36.8%
15,O=C(Nc1ccc(Br)cc1)Nc1nc2c(s1)CCCCCC2,3.02%
16,O=C(COCc1cc(-c2ccc3c(c2)OCO3)on1)Nc1cccc(O)c1,-7.43%
17,CCC(=O)N1c2ccccc2CC1C(=O)NCCCN1CCN(c2ccc(F)cc2)CC1 (centres undefined),-12.1%
18,Cc1cccc(C(=O)n2nc(-c3ccco3)nc2NCc2ccccc2)c1,6.05%
19,COc1ccc(NC(=O)C(=O)Nc2ccc3nc4n(c(=O)c3c2)CCCCC4)c(OC)c1,1.04%
20,CC(=O)c1c(-c2ccccc2)c2cc(Cl)ccc2[nH]c1=O,active: 74.9%
21,COc1ccc(Cl)cc1S(=O)(=O)Nc1ccc2c(c1)n(C)c(=O)n2C,-13.6%
22,COc1ccc(OC)c(NC(=O)C(Cc2ccccc2)NS(=O)(=O)c2ccc3c(c2)CCC(=O)N3)c1 (centres undefined),-13.3%
23,CCn1cc2nc(SCc3c(F)cccc3Cl)n(CCc3ccccc3)c(=O)c2n1,2.04%
24,Cc1ccc(C)c(Cn2c(=O)n(CCc3ccccc3)c(=O)c3c(C)c(C)sc32)c1,-1.4%
25,COc1ccc(Cn2nc3n(c2=O)-c2ccccc2OC3)cc1,6.79%

row,Compound,inhibition
1,Cc1ccc(-c2nnc(Nc3cccc(Br)c3)c3ccccc23)cc1S(=O)(=O)N1CCN(C)CC1,7%
2,COc1ccc(CCNC(=O)c2noc3c2CCCC3)cc1OC,active: 42.2%
3,O=C(Nc1ccccc1)c1cc2c(-c3ccccc3)nn(-c3ccccc3)c2s1,18.3%
4,O=C(CSc1c2c(nc3ccc(Cl)cc13)CCCC2)N1CCN(c2ccc(Cl)cc2)CC1,9.7%
5,CCOc1ccc(OC(=O)c2sc3ncn(Cc4cccc(F)c4)c(=O)c3c2C)cc1,12.3%
6,CCOC(=O)N1CCC(N2CCN(c3ccccc3)CC2)CC1,active: 73.7%
7,CSc1ccc(CCNS(=O)(=O)c2cc(-c3cc(C)no3)ccc2C)cc1,2.87%
8,C#CCOc1c(Br)cc(C2C(C(=O)OC)=C(C)NC3=C2C(=O)c2ccccc23)cc1OCC (centres undefined),27.3%
9,CCOC(=O)c1cnc2cc(Cl)c(OC)cc2c1Nc1ccc(Br)cc1C,8.85%
10,COc1ccccc1N1CCN(C(=O)C2CCN(S(=O)(=O)c3cccs3)CC2)CC1,-24.3%
11,COc1ccccc1C(=O)NC1(C(F)(F)F)C(=O)NC(C)=C1C#N (centres undefined),12.1%
12,COc1cc(OC)c(NC(=O)c2nn(C)c3c2COc2ccccc2-3)cc1Cl,-2.34%
13,Cc1ccccc1NC(=O)Cn1nnc(C(=O)NCc2ccco2)c1N,6%
14,COc1ccccc1NC(=O)CSc1ncc(CO)n1Cc1ccc(F)cc1,12.6%
15,COc1ccc2ncc3c(-c4ccccc4)nn(-c4ccc(C)c(C)c4)c3c2c1,11.1%
16,CC(C)c1cnc2c(c1SCC(=O)c1ccc(Cl)cc1)c(=O)n(C)c(=O)n2C,-2.38%
17,Cc1cccc(C)c1OCc1n[nH]c(=S)n1N,active: 43.2%
18,COc1cccc(CN2CCN(C(=O)c3cccs3)CC2)c1OC,active: 70.9%
19,Cc1cccc(N2CCN(C(=O)C3CCN(S(=O)(=O)Cc4ccccc4)CC3)CC2)c1C,15.4%
20,Cc1ccccc1NC(=O)Cn1c(=O)n(Cc2ccco2)c(=O)c2ccc(C(=O)NC3CCCC3)cc21,-9.17%
21,CC(C)(C)OC(=O)N1CCC(c2c(C(=O)NCCc3ccsc3)cnn2-c2ccc(F)cc2F)CC1,-0.427%
22,COc1ccc(Cl)cc1NC(=O)c1c(NCc2cccnc2)sc2c1CCCC2,0.388%
23,CCOC(=O)c1c(Nc2ccc(OCC)cc2)nnc(-c2ccccc2)c1-c1ccccc1,-13.4%
24,Cc1ccccc1NC(=O)CSCn1nnc2c(=O)[nH]c(Cc3ccc(F)cc3)nc21,-5.89%
